# From PMC10668032
# This is one part of the list. At the low end of the ranking the order means little.
# Molecular target: SIX1 homeodomain (reference allele) (UniProt Q15475)
# Assay: universal protein binding microarray
# Conditions: Universal all-10-mer PBM (8x60K, AMADID 030236), 300 nM GST-tagged protein, Alexa Fluor 488 anti-GST; buffer, salt, pH and temperature not stated; high values mean tight binding; most listed sequences are background and not binding sites; double strand, one strand shown
row,Sequence,binding signal [E-score]
1,CTGTTGTA,-0.139
2,CCTATGGA,0.00774
3,CTGTAAGA,-0.0658
4,CAATGTAG,-0.206
5,ACCGACGA,-0.0354
6,CTTCGGGA,-0.107
7,CCAAGTAG,-0.071
8,CGGTGTAG,0.297
9,AGCGAATA,-0.00215
10,GCGCGCGA,-0.0287
11,AGAGCGCT,-0.136
12,CACTTAGA,0.123
13,AGTCCAGA,-0.135
14,CACAACAG,-0.0838
15,AGCGGCTC,0.0652
16,CCCGATCG,0.323
17,CAACGGCA,-0.178
18,TAATGCCA,0.00471
19,ATAGCAGC,-0.102
20,TAATAAAA,-0.185
21,CGACCCGC,0.135
22,CCAAACGC,-0.252

row,Sequence,binding signal [E-score]
1,TCCAGAAA,-0.0609
2,CGCCATTC,-0.0996
3,AGGGCAAT,-0.212
4,ACGCCAAA,-0.176
5,AGATGAAG,-0.0574
6,GAAATTCC,-0.332
7,AGACGCCG,0.00043
8,GCCTGTCC,-0.222
9,AAACTCGA,-0.0575
10,ACTAGGAC,-0.198
11,TATCAGAA,0.354
12,ATCAATAA,0.182
13,GGTACGAC,-0.117
14,ACGGCCCG,0.0659
15,ATGGATAG,0.247
16,AACACTCG,-0.255
17,GCATCTAC,0.094
18,AATCTTTA,-0.171
19,ACGCTGGC,0.102
20,ACGCAATC,-0.0966
21,CACTTGAA,-0.0417
22,CTCAATAC,0.259

row,Sequence,binding signal [E-score]
1,ATGCAGCA,-0.0652
2,CACTCGTC,-0.158
3,TAGTCTGA,0.0959
4,CCGTGTAG,0.025
5,ACATCTAT,0.0949
6,ATCTCGTC,0.134
7,CGTACTGC,-0.234
8,ACTGAAGT,-0.25
9,CGGTTCAC,-0.0481
10,TCACGACA,-0.109
11,CACTCTAC,0.0386
12,CTCGTACC,0.0239
13,CTGATCGC,0.191
14,CAGGCGCC,-0.282
15,AACAGCAA,-0.12
16,TCGATAGA,0.123
17,CGGTGATA,0.409
18,ATGACCGG,-0.0478
19,GGAGACCC,0.0946
20,ACCTTGAA,-0.172
21,ATAAACCA,-0.136
22,CTACACAG,-0.132

row,Sequence,binding signal [E-score]
1,AGGTCAAA,-0.337
2,AGGGTTCA,-0.00559
3,AATACTGT,0.183
4,CTGACCAG,-0.103
5,ATAATGCC,0.0969
6,ACCGGTAA,0.0661
7,TATGCAAA,0.0318
8,CCGGGAAC,0.0419
9,GATATTGA,0.287
10,AAGCCCTG,-0.113
11,CCTCACAC,-0.182
12,GTGCCTGA,-0.153
13,ATACCAAT,0.348
14,ACCAACCG,-0.000715
15,CATGAGCA,-0.127
16,CCTCCCAC,0.00268
17,AATAGTGG,-0.112
18,GTGGTAGA,0.0943
19,AATCATAG,-0.107
20,ACGAATTA,-0.00856
